The campaign covered roughly 310,000 compounds. About 2,200 (0.71%) showed an effect of 50% or more. The effect is printed as a negative number. This is one part of the list.
The compounds below were run against human ether-à-go-go-related gene (hERG) potassium channel (human, UniProt Q12809) (assay: primary screen, population patch clamp on CHO cells stably expressing hERG).
human ether-à-go-go-related gene (hERG) potassium channel, sequence (Q12809 whole entry, looked up): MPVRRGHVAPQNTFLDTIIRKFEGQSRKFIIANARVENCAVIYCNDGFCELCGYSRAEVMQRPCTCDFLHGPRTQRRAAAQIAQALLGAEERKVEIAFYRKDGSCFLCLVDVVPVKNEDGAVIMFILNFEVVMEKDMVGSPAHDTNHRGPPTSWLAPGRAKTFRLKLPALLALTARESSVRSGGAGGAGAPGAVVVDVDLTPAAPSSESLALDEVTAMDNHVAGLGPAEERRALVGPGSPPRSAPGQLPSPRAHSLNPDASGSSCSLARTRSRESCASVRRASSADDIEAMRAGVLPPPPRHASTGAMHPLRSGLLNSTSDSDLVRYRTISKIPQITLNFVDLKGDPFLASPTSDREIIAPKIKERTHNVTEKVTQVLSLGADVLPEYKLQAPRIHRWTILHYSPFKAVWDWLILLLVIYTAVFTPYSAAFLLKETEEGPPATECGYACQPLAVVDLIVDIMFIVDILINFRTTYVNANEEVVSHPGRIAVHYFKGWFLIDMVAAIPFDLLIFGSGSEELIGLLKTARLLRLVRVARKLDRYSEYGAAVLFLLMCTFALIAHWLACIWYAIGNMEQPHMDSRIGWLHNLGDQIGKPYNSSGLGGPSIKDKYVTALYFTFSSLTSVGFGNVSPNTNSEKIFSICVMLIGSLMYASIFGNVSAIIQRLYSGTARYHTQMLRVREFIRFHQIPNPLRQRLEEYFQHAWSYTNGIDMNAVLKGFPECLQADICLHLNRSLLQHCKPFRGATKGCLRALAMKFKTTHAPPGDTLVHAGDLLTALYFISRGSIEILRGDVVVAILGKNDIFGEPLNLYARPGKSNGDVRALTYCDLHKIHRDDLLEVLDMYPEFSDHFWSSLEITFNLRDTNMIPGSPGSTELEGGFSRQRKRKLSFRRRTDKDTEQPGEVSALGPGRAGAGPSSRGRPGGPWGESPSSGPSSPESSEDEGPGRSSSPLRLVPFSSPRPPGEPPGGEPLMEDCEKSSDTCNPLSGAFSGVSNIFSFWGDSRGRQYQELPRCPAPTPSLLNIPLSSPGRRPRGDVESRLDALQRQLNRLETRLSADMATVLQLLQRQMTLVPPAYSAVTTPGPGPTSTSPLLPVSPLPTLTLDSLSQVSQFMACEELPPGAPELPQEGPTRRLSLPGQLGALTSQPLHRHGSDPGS

SMILES | hERG current change (%, negative = inhibition) at 1uM [%]
COc1ccc(/C=N/NC(=O)Cc2csc(Nc3cccc(C(F)(F)F)c3)n2)cc1C | -3.48
O=S(=O)(c1ccccc1)n1ccc(-c2cnc(-c3ccccc3)s2)n1 | 3.9
NC(=O)c1cc(S(=O)(=O)NCc2ccc(Br)cc2)cs1 | 13.1
Cc1ccccc1OCC(=O)NC1CCCCCCC1 | 0.489
COc1ccc(-n2c(SCC(=O)N3CCCC(C)C3)nnc2-c2cccnc2)cc1 (stereo not shown) | -5.86
O=C(O)c1cc(CN2CCOCC2)oc1-c1ccccc1 | 9.09
O=C(CCCCCn1c(=S)[nH]c2cc3c(cc2c1=O)OCO3)N1CCN(c2ccc(F)cc2)CC1 | 3.85
CN1CCN(CCC(=O)N/N=C/c2ccccc2F)CC1 | 6.81
COc1ccc(C(=O)n2cc(C(C)=O)c3ccccc32)cc1 | 16.2
COc1ccc(Cn2nnnc2C(c2cc3ccc(OC)cc3[nH]c2=O)N2CCC(C)CC2)cc1 (stereo not shown) | 6.05
O=C(O)c1cn(-c2ccc(F)cc2)c2cc(Cl)c(F)cc2c1=O | 14.3
Fc1ccc(C2NCCn3cccc32)cc1.O=C(O)/C=C/C(=O)O (stereo not shown) | 6.58
CCOc1ccc(N(C(C)C(=O)N/N=C(\C)c2cccc(NC(=O)c3ccccc3)c2)S(C)(=O)=O)cc1 (stereo not shown) | -4.78
COc1ccc(CCN(C)C(=O)CCNC(=O)c2ccc(Br)cc2)cc1OC | -7.28
Cc1cccc(C)c1OCc1cc(C(=O)N2CCN(c3ccccc3)CC2C)no1 (stereo not shown) | 8.33
O=C(/C=C/c1ccco1)Nc1cccc(NC(=O)/C=C/c2ccco2)n1 | 4.87
O=C(O)CCn1nnc(-c2ccccc2)n1 | 10.7
CCCCNc1ccc(C(=O)Nc2cccc(C)n2)cc1[N+](=O)[O-] | 2.75
CNC(=S)N(Cc1cccs1)Cc1cc2ccc(OC)cc2[nH]c1=O | 14.9
CC(=O)N1Cc2ccccc2C(C)CC12CCCC2 (stereo not shown) | 10.5
CCn1c(CNC(=O)C2CCCCC2)cc2ccccc21 | 21.4
CCCCCc1nc2ccccc2c(=O)n1-c1ccc(Cl)cc1[N+](=O)[O-] | -5.99

SMILES | hERG current change (%, negative = inhibition) at 1uM [%]
N#Cc1ccc(C23CC4(C2)[C@H](CN(Cc2ccc(-c5ccccc5)cc2)[C@@H]4c2ccccc2)C3c2ccc(Cl)nc2)cc1 (stereo partly shown) | 3.17
Cn1c(SCc2c(F)cccc2Cl)nc2ccccc2c1=O | 13.2
O=C(CN1C(=O)c2ccccc2S1(=O)=O)NCc1cccs1 | 8.98
O=C(NCCCCCCNC(=O)NCc1ccco1)NCc1ccco1 | 6.09
CC(C)(C)c1ccc(S(=O)(=O)N2CCC(N3CCCCC3)CC2)cc1 | 7.46
Cc1cc(C)n(S(=O)(=O)c2ccc(Cl)cc2)n1 | 13.7
COc1ccc(N2CCN(S(=O)(=O)c3cc(C)ccc3OC)CC2)cc1 | 11.6
CCN1CCN(Cc2ccc(NC(=O)c3ccc(C)c(NC(=O)C[C@@H]4NC(=O)[C@H](Cc5ccccc5)NC4=O)c3)cc2C(F)(F)F)CC1 | 14.9
CCC1Oc2ccccc2N(CC(=O)NC2CCCCC2)C1=O (stereo not shown) | 18.3
CC(NC(=O)c1ccccc1F)c1nnc(SCC(=O)Nc2nccs2)n1C (stereo not shown) | 12.2
CCCN1CC(O)=C(C#N)C1=O | 7.34
Cc1ccc(NC2OC(C(O)CO)C(O)C2O)cc1[N+](=O)[O-] (stereo not shown) | 3.18
O=C1CCCC2=C1C(c1ccco1)Nc1ccc3ccccc3c12 (stereo not shown) | -10.1
COc1cc(NC(=S)Nc2ccc(OC(F)F)cc2)cc(OC)c1 | 3.33
Cc1cccc(NC(=O)C2CCN(S(=O)(=O)c3cccc4cccnc34)CC2)n1 | 7.96
Cn1c(=O)n(CC(=O)N2CCC3(CC2)OCCO3)c(=O)c2ccccc21 | 2.78
Cc1ccc(C)c(S(=O)(=O)NC2CCS(=O)(=O)C2)c1 (stereo not shown) | 5.88
O=C(/C=C\Nc1ccc2c(c1)OCO2)c1ccccn1 | 11.9
COC(=O)c1ccc(NC(=O)C(=O)c2cn(CC(=O)N3CCOCC3)c3ccccc23)cc1 | 1.33
FC(F)(F)c1nnc(-c2ccccc2)nc1Oc1ccc(Cl)cc1Cl | 12.7
COc1ccc(/C=N/N2CCOCC2)cc1OCc1ccccc1 | 5.61
CCN1CCN(S(=O)(=O)c2ccc(S(=O)(=O)NCC3CCCO3)cc2)CC1 (stereo not shown) | 16.4

SMILES | hERG current change (%, negative = inhibition) at 1uM [%]
Cc1cc(NC(=O)c2ccccc2-c2ccccc2C(=O)O)no1 | 2.07
Cn1c(=O)c2c(nc(SCCCO)n2Cc2ccccc2Cl)n(C)c1=O | -11.7
Cc1cccc2cc3c(NC(=O)c4ccccn4)nn(C)c3nc12 | 7.03
COc1ccc(C2Nc3ccccc3C(=O)N2NS(=O)(=O)c2ccc(C)cc2)cc1OC (stereo not shown) | 9.78
CCOc1ccccc1OCC(=O)Nc1ccccc1C(=O)NC1CC1 | 15.8
CC(Cc1ccco1)NC(=O)c1cccc(S(=O)(=O)N(C)C)c1 (stereo not shown) | 11.8
Cc1ccc(S(=O)(=O)N2CCN(C(=O)CCn3nc(C)c(C)c3C)CC2)cc1 | 23.1
COc1ccccc1NS(=O)(=O)c1ccc(C(=O)N2CCCC(C(F)(F)F)C2)cc1 (stereo not shown) | 5.56
CCOc1cc(C2NC(=O)NC(C)=C2C(=O)NCc2ccccc2)c(Cl)cc1O (stereo not shown) | -6.28
O=C(CSc1ccc2ccccc2c1)Nc1ccncc1 | 7.51
O=C(O)Cn1c(=O)c2cccn2c2ccccc21 | 18
COCCNc1nnc(Cc2ccccc2)c(=O)[nH]1 | 19.5
CCC(C)N1CCCCC1C(=O)Nc1c(C)cc(C)cc1C.Cl (stereo not shown) | 9.65
CCCNC(=O)C(Cc1ccc(Cl)cc1)NC(=O)c1ccc(-c2ccccc2)cc1 (stereo not shown) | 18.6
Cn1c(=O)c2nc(NCc3ccccc3)cnc2n(C)c1=O | 4.58
CCCC(=O)Nc1cc(-c2nc3ncccc3o2)ccc1C | 20.2
Cc1cc(C)cc(NC(=O)C2CCN(C(=O)[C@@H]3Cc4ccccc4CN3)CC2)c1 | -36.9
C#CCNC(=O)C1=C[C@@H](c2ccc(C(F)(F)F)cc2)C[C@@H](OCCCCO)O1 | -24.5
Cc1ccc(NC(=O)CCSc2nnc(C)o2)cc1 | 3.34
O=C1C(=O)N(CNc2ccccn2)c2ccccc21 | 13.4
Cc1cc2oc(C(=O)Nc3ccc(S(N)(=O)=O)cc3)c(C)c2cc1Cl | 11.7
Nn1c(SCc2cn3ccccc3n2)nnc1-c1ccncc1 | 5.31

SMILES | hERG current change (%, negative = inhibition) at 1uM [%]
COc1ccc(CC(=O)Nc2ccc(N3CCOCC3)cc2)cc1OC | 12.6
CC(=O)c1ccc(NC(=O)c2noc(C(C)C)c2[N+](=O)[O-])cc1 | 17.1
CCCC(=O)Nc1ccc(Cl)c(NC(=O)c2cccnc2Cl)c1 | 10.7
COc1cc(C(=O)N2CCN(Cc3ccc4c(c3)OCO4)CC2)c([N+](=O)[O-])cc1OC | 7.28
CN(C)CCNS(=O)(=O)c1ccc(Cl)cc1 | 13.5
CCC1CCC2(CC1)SCC(=O)N2c1ccccc1 (stereo not shown) | 13
O=C(CCNC(=O)c1ccccc1)OCC(=O)c1ccccc1 | 9.03
CCOc1ncccc1C(=O)OCC(=O)Nc1ccc(-c2nc3ccc(C)cc3s2)cc1 | 20.8
CCCCCNC(=O)c1ccc2c(=O)n(CCCN3CCCC3=O)c(=S)[nH]c2c1 | 7.16
Cc1cc(CNC(=O)c2cccc(OC3CCN(S(=O)(=O)N(C)C)CC3)c2)on1 | 4.35
COc1cc(C(=O)NCc2ccc(C(=O)NCC(OC)OC)cc2)cc(OC)c1OC | 11
COc1ccc(CC(=O)Nc2ccccc2C(=O)NCCc2ccccc2)cc1 | 16.5
Cc1csc(N(C(=O)c2ccccc2F)c2ccccc2)n1 | 10.2
CCC(=O)Nc1cccc(NC(=S)NC(=O)c2ccccc2Cl)c1 | 7.68
COc1ccccc1CNc1ncccn1.O=C(O)C(=O)O | 14.2
COc1cc(NC(=O)Cc2cccs2)cc(OC)c1 | 3.14
COC(=O)c1c(C(=O)OC)c(-c2ccc(C)cc2)n2c1CS(=O)(=O)C2 | 2.88
COc1ccc(S(=O)(=O)N2CCCCC2)cc1NC(=O)c1ccccc1 | 15
S=C(NCc1ccccc1)NCc1ccco1 | 10
O=C(CCN1CCN(Cc2ccccc2)CC1)Nc1cccc(Cl)c1 | -45
O=C(NCCS(=O)(=O)N1CCN(c2ccccc2)CC1)c1ccc2c(c1)OCO2 | 6.24
O=C(Cc1n[nH]c(=O)c2ccccc12)OCC(=O)c1ccc(OC(F)F)cc1OC(F)F | 4.99

From article PMC4336329 (PLoS ONE, 2015)
